Test results published in the supplement of paper PMC12217912.
Some of the results follow. Sequences were assembled here from the parent chain. Inactive controls read about 0.05.

B1: TEV protease; numbered along this chain (parent)
chain: MGESLFKGPRDYNPISSSICHLTNESDGHTTSLYGIGFGPFIITNKHLFRRNNGTLVVQSLHGVFKVKDTTTLQQHLVDGRDMIIIRMPKDFPPFPQKLKFREPQREERICLVTTNFQTKSMSSMVSDTSCTFPSGDGIFWKHWIQTKDGQCGSPLVSTRDGFIVGIHSASNFTNTNNYFTSVPKNFMELLTNQEAQQWVSGWRLNADSVLWGGHKVFMVKPEEPFQPVKEATQL

Variants of: B1
Experiment: raw area under fraction-flipped curve 0-4 h after induction (AUC4h, not background-subtracted), DNA-recorder readout of cleavage of the substrate (dimensionless); higher = more cleavage of the substrate by the protease variant
Details: temperature: 34 °C; time window: 0-4 h after rhamnose induction
Description: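 In vivo DNA recorder in E. coli TOP10(DE3) ΔrhaA at 34 °C. Each TEVp single-site mutant (parent TEVp 0) is paired with a single-site variant of the 7-mer TEVs (canonical ENLYFQ|S). The substrate sits between flexible linkers in a Bxb1-sfGFP-TEVs-SsrA fusion, so cleavage stabilises Bxb1 and speeds flipping of a recombination array, read by NGS. The value is the raw area under the fraction-flipped curve over 0-4 h after rhamnose induction (AUC4h), with ≥20 reads per time point. It is not background-subtracted; inactive controls average about 0.047.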
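Further: Bxb1 expression induced with 0.2% (w/v) L-rhamnose at OD600 near 0.5, cultures sampled hourly, flipped fraction per protease–substrate barcode pair counted by paired-end Illumina sequencing.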

Variant | area with substrate ENLYFQA | area with substrate ENLYFQC | area with substrate ENLYFQD | area with substrate ENLYFQH | area with substrate ENLYFQI | area with substrate ENLYFQL | area with substrate ENLYFQM | area with substrate ENLYFQN | area with substrate ENLYFQR | area with substrate ENLYFQS | area with substrate ENLYFQT | area with substrate ENLYFQW | area with substrate ENLYFQY | area with substrate ENLYFQG | area with substrate ENLYFQK | area with substrate ENLYFQP | area with substrate ENLYFQQ | area with substrate ENLYFQF | area with substrate ENLYFQV | area with substrate ENLYFQE
MGEFLFKGPRDYNPISSSICHLTNESDGHTTSLYGIGFGPFIITNKHLFRRNNGTLVVQSLHGVFKVKDTTTLQQHLVDGRDMIIIRMPKDFPPFPQKLKFREPQREERICLVTTNFQTKSMSSMVSDTSCTFPSGDGIFWKHWIQTKDGQCGSPLVSTRDGFIVGIHSASNFTNTNNYFTSVPKNFMELLTNQEAQQWVSGWRLNADSVLWGGHKVFMVKPEEPFQPVKEATQL [S4F] | 0.138 | 0.13 | 0.0838 | 0.101 | 0.0659 | 0.0679 | 0.134 | 0.105 | 0.0641 | 0.143 | 0.0701 | 0.0943 | 0.0936 | – | – | – | – | – | – | –
MGESLRKGPRDYNPISSSICHLTNESDGHTTSLYGIGFGPFIITNKHLFRRNNGTLVVQSLHGVFKVKDTTTLQQHLVDGRDMIIIRMPKDFPPFPQKLKFREPQREERICLVTTNFQTKSMSSMVSDTSCTFPSGDGIFWKHWIQTKDGQCGSPLVSTRDGFIVGIHSASNFTNTNNYFTSVPKNFMELLTNQEAQQWVSGWRLNADSVLWGGHKVFMVKPEEPFQPVKEATQL [F6R] | 0.0805 | – | – | 0.108 | – | 0.0686 | – | 0.0699 | 0.0694 | 0.104 | 0.0753 | – | 0.0028 | – | – | – | – | – | – | –
MGESLFNGPRDYNPISSSICHLTNESDGHTTSLYGIGFGPFIITNKHLFRRNNGTLVVQSLHGVFKVKDTTTLQQHLVDGRDMIIIRMPKDFPPFPQKLKFREPQREERICLVTTNFQTKSMSSMVSDTSCTFPSGDGIFWKHWIQTKDGQCGSPLVSTRDGFIVGIHSASNFTNTNNYFTSVPKNFMELLTNQEAQQWVSGWRLNADSVLWGGHKVFMVKPEEPFQPVKEATQL [K7N] | 0.0712 | 0.132 | 0.0843 | 0.0861 | 0.0611 | 0.0171 | – | 0.0879 | 0.0758 | 0.107 | 0.0695 | 0.0703 | – | 0.0762 | 0.0689 | 0.0646 | 0.0703 | – | – | –
MGESLFKGPRDFNPISSSICHLTNESDGHTTSLYGIGFGPFIITNKHLFRRNNGTLVVQSLHGVFKVKDTTTLQQHLVDGRDMIIIRMPKDFPPFPQKLKFREPQREERICLVTTNFQTKSMSSMVSDTSCTFPSGDGIFWKHWIQTKDGQCGSPLVSTRDGFIVGIHSASNFTNTNNYFTSVPKNFMELLTNQEAQQWVSGWRLNADSVLWGGHKVFMVKPEEPFQPVKEATQL [Y12F] | 0.101 | 0.112 | 0.0892 | – | – | 0.0672 | 0.0991 | 0.0659 | 0.059 | 0.107 | 0.0643 | 0.0629 | 0.0969 | 0.0918 | 0.0564 | 0.0602 | 0.03 | 0.0684 | 0.0803 | –
MGESLFKGPRDYNQISSSICHLTNESDGHTTSLYGIGFGPFIITNKHLFRRNNGTLVVQSLHGVFKVKDTTTLQQHLVDGRDMIIIRMPKDFPPFPQKLKFREPQREERICLVTTNFQTKSMSSMVSDTSCTFPSGDGIFWKHWIQTKDGQCGSPLVSTRDGFIVGIHSASNFTNTNNYFTSVPKNFMELLTNQEAQQWVSGWRLNADSVLWGGHKVFMVKPEEPFQPVKEATQL [P14Q] | 0.03 | 0.142 | 0.0912 | 0.092 | 0.0468 | – | 0.0878 | – | 0.0756 | 0.11 | 0.0675 | – | 0.0856 | – | 0.0438 | – | 0.0635 | 0.0812 | 0.0626 | –
MGESLFKGPRDYNVISSSICHLTNESDGHTTSLYGIGFGPFIITNKHLFRRNNGTLVVQSLHGVFKVKDTTTLQQHLVDGRDMIIIRMPKDFPPFPQKLKFREPQREERICLVTTNFQTKSMSSMVSDTSCTFPSGDGIFWKHWIQTKDGQCGSPLVSTRDGFIVGIHSASNFTNTNNYFTSVPKNFMELLTNQEAQQWVSGWRLNADSVLWGGHKVFMVKPEEPFQPVKEATQL [P14V] | 0.089 | 0.102 | 0.0939 | 0.0473 | 0.0321 | 0.0557 | 0.0809 | 0.0566 | – | 0.0897 | 0.0702 | 0.0589 | 0.0705 | 0.0727 | 0.0718 | – | – | 0.0891 | 0.0622 | –
MGESLFKGPRDYNPIPSSICHLTNESDGHTTSLYGIGFGPFIITNKHLFRRNNGTLVVQSLHGVFKVKDTTTLQQHLVDGRDMIIIRMPKDFPPFPQKLKFREPQREERICLVTTNFQTKSMSSMVSDTSCTFPSGDGIFWKHWIQTKDGQCGSPLVSTRDGFIVGIHSASNFTNTNNYFTSVPKNFMELLTNQEAQQWVSGWRLNADSVLWGGHKVFMVKPEEPFQPVKEATQL [S16P] | 0.0812 | 0.116 | 0.0855 | 0.0806 | – | 0.057 | 0.0861 | 0.0696 | 0.0518 | 0.0983 | 0.0759 | 0.06 | 0.0861 | 0.101 | 0.0535 | 0.0679 | 0.067 | 0.0799 | – | –
MGESLFKGPRDYNPISYSICHLTNESDGHTTSLYGIGFGPFIITNKHLFRRNNGTLVVQSLHGVFKVKDTTTLQQHLVDGRDMIIIRMPKDFPPFPQKLKFREPQREERICLVTTNFQTKSMSSMVSDTSCTFPSGDGIFWKHWIQTKDGQCGSPLVSTRDGFIVGIHSASNFTNTNNYFTSVPKNFMELLTNQEAQQWVSGWRLNADSVLWGGHKVFMVKPEEPFQPVKEATQL [S17Y] | 0.0968 | 0.113 | – | 0.0611 | 0.0654 | 0.0623 | 0.0868 | 0.0492 | 0.0587 | 0.0985 | 0.0675 | – | 0.0736 | 0.114 | 0.0631 | 0.0585 | 0.0657 | 0.0703 | 0.0661 | –
MGESLFKGPRDYNPISSSIKHLTNESDGHTTSLYGIGFGPFIITNKHLFRRNNGTLVVQSLHGVFKVKDTTTLQQHLVDGRDMIIIRMPKDFPPFPQKLKFREPQREERICLVTTNFQTKSMSSMVSDTSCTFPSGDGIFWKHWIQTKDGQCGSPLVSTRDGFIVGIHSASNFTNTNNYFTSVPKNFMELLTNQEAQQWVSGWRLNADSVLWGGHKVFMVKPEEPFQPVKEATQL [C20K] | 0.0495 | 0.0514 | 0.0423 | 0.0497 | 0.0447 | 0.0477 | 0.0518 | 0.0503 | 0.0401 | 0.0507 | 0.0433 | 0.0558 | 0.0316 | 0.0496 | 0.0474 | 0.0563 | 0.0377 | 0.0509 | 0.0484 | 0.061
